Assay results published in publication PMC4336329 (PLoS ONE, 2015).
Screen size: about 310,000 compounds; about 14,000 (4.5%) showed an effect of 50% or more. Effects have a minus sign here. This is one part of the list.

Biological target: human ether-à-go-go-related gene (hERG) potassium channel (human, UniProt Q12809)
Test: primary screen, population patch clamp on CHO cells stably expressing hERG
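Note: peak tail current of the secondary pulse compared with the same well before compound.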

human ether-à-go-go-related gene (hERG) potassium channel, sequence (Q12809 whole entry, looked up): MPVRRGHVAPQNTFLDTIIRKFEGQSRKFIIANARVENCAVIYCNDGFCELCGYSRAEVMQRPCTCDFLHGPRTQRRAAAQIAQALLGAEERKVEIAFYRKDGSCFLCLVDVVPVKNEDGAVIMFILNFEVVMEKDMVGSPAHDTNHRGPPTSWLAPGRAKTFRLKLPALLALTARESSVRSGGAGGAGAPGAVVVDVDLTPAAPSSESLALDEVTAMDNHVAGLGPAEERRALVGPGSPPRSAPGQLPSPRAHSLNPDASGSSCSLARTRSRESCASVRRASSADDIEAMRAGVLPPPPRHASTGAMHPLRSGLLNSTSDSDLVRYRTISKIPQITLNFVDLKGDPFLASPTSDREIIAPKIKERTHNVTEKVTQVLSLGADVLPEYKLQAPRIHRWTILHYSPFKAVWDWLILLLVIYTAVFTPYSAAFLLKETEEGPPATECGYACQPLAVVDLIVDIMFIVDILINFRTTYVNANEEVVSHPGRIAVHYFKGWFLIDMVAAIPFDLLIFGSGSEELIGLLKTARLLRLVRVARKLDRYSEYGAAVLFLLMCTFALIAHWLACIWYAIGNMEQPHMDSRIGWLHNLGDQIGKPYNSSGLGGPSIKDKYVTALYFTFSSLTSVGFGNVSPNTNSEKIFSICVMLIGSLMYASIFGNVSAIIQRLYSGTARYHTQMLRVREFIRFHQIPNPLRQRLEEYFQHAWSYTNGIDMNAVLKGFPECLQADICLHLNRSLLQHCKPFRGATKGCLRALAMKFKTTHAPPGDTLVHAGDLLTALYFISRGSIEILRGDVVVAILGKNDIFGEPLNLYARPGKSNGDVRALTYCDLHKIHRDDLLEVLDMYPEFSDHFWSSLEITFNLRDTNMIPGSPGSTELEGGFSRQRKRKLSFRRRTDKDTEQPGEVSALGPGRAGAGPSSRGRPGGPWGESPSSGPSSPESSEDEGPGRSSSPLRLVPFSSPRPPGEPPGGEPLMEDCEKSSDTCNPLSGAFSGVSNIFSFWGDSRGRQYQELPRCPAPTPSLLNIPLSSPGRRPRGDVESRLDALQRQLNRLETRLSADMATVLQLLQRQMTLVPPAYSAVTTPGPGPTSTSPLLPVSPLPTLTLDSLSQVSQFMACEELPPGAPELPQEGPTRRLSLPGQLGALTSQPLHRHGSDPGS

| SMILES | hERG current change (%, negative = inhibition) at 10uM |
| --- | --- |
| Cc1ccc(N(CC(=O)N2CCCC2)S(C)(=O)=O)c(C)c1 | 19.6% |
| Cn1c(-c2cccc([N+](=O)[O-])c2)cnc1NCc1ccc(C#N)cc1.O=C(O)C(=O)O | -75% |
| CN(C)CC(C)(C)CNC(=O)c1cc(=O)c2ccccc2o1.Cl | 19.6% |
| N#CCCn1nc(-c2ccc([N+](=O)[O-])cc2)cc1Nc1ccccc1NC(=O)C(F)(F)F | -20.1% |
| COc1cccc(C2=NOC(C(=O)Nc3cc(OC)c(OC)c(OC)c3)C2)c1 (stereo not shown) | -0.496% |
| S=C1NC[C@H](c2ccccc2)N1CC1CCCCC1 | -5.45% |
| COc1ccc(OC)c(CC(NC(C)=O)C(=O)NC2CCN(c3cc(C)nc4ncnn34)CC2)c1 (stereo not shown) | 45.1% |
| O=C(NC(=O)C(F)(F)F)Nc1ccc(S(=O)(=O)Nc2nccs2)cc1 | 14.3% |
| COc1ccccc1CCNC(=O)CSc1nc(-c2ccco2)cc(C(F)(F)F)n1 | 27.1% |
| O=C(NCC1CCCN(C(=O)NCc2ccccc2)C1)c1ccc2c(c1)OCO2 (stereo not shown) | 1.32% |
| CC(=O)COc1ncnc2c(Cl)cc(Cl)cc12 | 17.6% |
| COc1cc(CNCCNC(=O)c2nonc2N)ccc1OCc1ccc(Cl)nc1.Cl | -56.4% |
| CCN(Cc1ccccc1)C(=O)c1ccc(CNS(=O)(=O)c2ccc(C)cc2)cc1 | -10.3% |
| CC1CCN(c2oc(-c3ccco3)nc2S(=O)(=O)c2ccccc2)CC1 | -6.14% |
| CCN(CC)CCNC(=O)c1ccc(NC(=O)c2cc(S(=O)(=O)N3CCCCC3)ccc2C)cc1 | 14.8% |
| CC(=NCCc1ccccc1)c1c(O)n(C)c(=O)n(C)c1=O | 1.46% |
| Cn1cc(CCNC(=O)CCc2nnc(CCCCc3ccccc3)o2)cn1 | 0.976% |
| CC(C)CC(=O)Nc1ccccc1-c1nnn(CC(=O)N2CCOCC2)n1 | -2.78% |
| CCc1ccc(NC(=O)c2ccccc2Br)cc1 | -11.2% |
| O=[N+]([O-])c1ccccc1S(=O)(=O)Nc1ccc(S(=O)(=O)Nc2nccs2)cc1 | -5.3% |
| O=S(Cc1ccc(Br)cc1)Cc1nnc(SCc2c(Cl)cccc2Cl)n1-c1ccccc1 (stereo not shown) | -21.5% |
| CCS(=O)(=O)NCCc1cc2ccc(C)cc2[nH]c1=O | -21.5% |
| NC(=O)OCC(O)COc1ccc(Cl)cc1 (stereo not shown) | 9.97% |
| O=P(O)(O)CP(=O)(O)O | -1.68% |
| COc1ccc2c(C)c(C(=O)NCC(C)O)oc2c1OC (stereo not shown) | 11.6% |
| Fc1cc(F)cc(-c2oncc2-c2nnnn2-c2ccccc2)c1 | 12% |
| CCCC1(c2ccccc2)NC(=O)N(CC(=O)Nc2cc(C)ccc2OC)C1=O (stereo not shown) | -0.981% |
| C=CCn1c(SC(CCO)C(=O)NCc2ccco2)nc2sc3c(c2c1=O)CCC3 (stereo not shown) | -23.3% |

| SMILES | hERG current change (%, negative = inhibition) at 10uM |
| --- | --- |
| CCOc1ccc(CCNC(=O)Cn2nc(C)c3c(C)n(-c4ccccc4)nc3c2=O)cc1OCC | 4.66% |
| Nn1c(Cc2cccc3ccccc23)nnc1SCC(=O)NCC1CCCO1 (stereo not shown) | -12.9% |
| CCOC(=O)NN=C1CCC(c2ccccc2)CC1 (stereo not shown) | 10.9% |
| COc1ccc(/C=C/C(=O)NCCOc2ccc(C)cc2)cc1 | 6.3% |
| CCOc1cccc(C(=O)NC(=S)Nc2cccnc2)c1 | -14.5% |
| NS(=O)(=O)c1cccc(NC(=O)c2cccnc2Oc2ccccc2)c1 | 12.7% |
| CC(C)(C)c1ccc(C2SCC(=O)N2c2cccc(C(=O)O)c2)cc1 (stereo not shown) | 16.8% |
| O=c1[nH]c(-c2ccc(Cl)cc2)cs1 | 9.25% |
| CN(C(=O)CSc1nnc(COc2ccccc2F)n1N)C1CCS(=O)(=O)C1 (stereo not shown) | 15.2% |
| CCc1nc(OCc2ccco2)c2sc3nc4c(cc3c2n1)COC(C)(C)C4 | -13.6% |
| CS(=O)(=O)c1ccc(C(=O)NNC(=O)c2ccccc2-n2cccc2)cc1 | 10.1% |
| CCOC(=O)C1CCCN(C(=O)c2ccc(S(=O)(=O)N3CCCC3)cc2)C1 (stereo not shown) | 12.9% |
| O=C1c2cccc3cccc(c23)C(=O)N1CC1CCN(S(=O)(=O)c2ccc(F)cc2)CC1 | 2.54% |
| Cc1c(N=C2Nc3cccc4cccc2c34)c(=O)n(-c2ccccc2)n1C | 10.9% |
| CCOC(=O)CSc1nnc(CNC(=O)c2cc(OC)c(OC)c(OC)c2)n1C | -3.68% |
| Cc1ccc2nc(SCC(=O)Nc3ccccc3F)nc(=O)n2c1 | -19% |
| Cc1cccc(OCC(O)Cn2c(NCCCOC(C)C)nc3c2c(=O)[nH]c(=O)n3C)c1 (stereo not shown) | 13.6% |
| CCOc1cc(C(=S)N2CCOCC2)cc(Br)c1OS(=O)(=O)c1ccccc1 | 9.78% |
| Cc1ccc(NC(=O)CCn2nnc3ccccc32)cc1 | 10% |
| Cc1ccc(C)c(NS(=O)(=O)c2cc(C(=O)Nc3ccccc3-c3ccccc3)ccc2C)c1 | 18.2% |
| Cc1c(NC(=O)COc2cccc3c2OC(C)(C)C3)c(=O)n(-c2ccccc2)n1C | 8.77% |
| CCNC(=S)N/N=C(\C)c1cc2ccccc2o1 | 0.843% |
| Cc1ccc(-n2nnnc2Sc2nc([N+](=O)[O-])nn2C)cc1 | -17.9% |
| CCOC(=O)C1CCCN(C(=O)C(C)(C)Oc2ccc(Cl)cc2)C1 (stereo not shown) | -3.08% |
| O=C(CSc1nnc(CNC(=O)c2cccs2)o1)Nc1ccc(F)cc1F | 6.27% |
| Cc1cccc(-c2cc3nc(-c4ccccc4)cc(N4CCC5(CC4)OCCO5)n3n2)c1 | 2.7% |
| Cc1ccc(C(=O)NNC(=O)c2ccc(C)cc2)cc1 | 3.96% |
